Laboratory results as given in the supplement of paper PMC9174493.
This is one part of the list. Single values of this set are uncertain. Values with irradiation are relative to irradiated vehicle.
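Also: viability correction based on the alamar blue assay, with concentrations leaving 10% survival or less dropped.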

What follows are compounds tested on A549-Dual (assay: NF-kB reporter (SEAP) activity, viability-corrected, relative to vehicle (fold change vs vehicle); higher = more activation of STING-IRF / NF-kB immune response reporter). Conditions: 10 µM; irradiation: none.
For `COc1ccccc1OCC(O)COC(N)=O` (stereo not drawn) [Methocarbamol], the NF-kB reporter was 1.28. In the case of `COC1/C=C/OC2(C)Oc3c(C)c(O)c4c(O)c(c(/C=N/N5CCN(C6CCCC6)CC5)c(O)c4c3C2=O)NC(=O)/C(C)=C/C=C/C(C)C(O)C(C)C(O)C(C)C(OC(C)=O)C1C` (stereo in doubt) [Rifapentine], the NF-kB reporter is reported as 0.947. Work on `OCC(O)C(O)C(O)C(O)CO` (stereo not drawn) [Sorbitol] yielded an NF-kB reporter of 1.27. Compound `CC(=O)O.CC(N)C(=O)NCC(=O)NC1CSSCC(C(=O)O)NC(=O)C(CO)NC(=O)C(C(C)O)NC(=O)C(Cc2ccccc2)NC(=O)C(C(C)O)NC(=O)C(CCCCN)NC(=O)C(Cc2c[nH]c3ccccc23)NC(=O)C(Cc2ccccc2)NC(=O)C(Cc2ccccc2)NC(=O)C(CC(N)=O)NC(=O)C(CCCCN)NC1=O` (stereo not drawn) [Somatostatin Acetate] has an NF-kB reporter of 0.839. `O=c1c(-c2ccc(O)cc2)coc2cc(OC3OC(CO)C(O)C(O)C3O)ccc12` (stereo not drawn) [Daidzin] gave an NF-kB reporter of 1.09. `C[n+]1cccc(C(=O)O)c1.[Cl-]` [Trigonelline Hydrochloride] was tested, and the NF-kB reporter was 0.684. `CCCN(CCc1cccs1)C1CCc2c(O)cccc2C1` (stereo not drawn) [Rotigotine] showed an NF-kB reporter of 0.777. In the case of `CCc1ccc(CCOc2ccc(CC3SC(=O)NC3=O)cc2)nc1.Cl` (stereo not drawn) [Pioglitazone HCl], the NF-kB reporter is reported as 0.697. `N#C/C(=C1/SCC(c2ccc(Cl)cc2Cl)S1)n1ccnc1` (stereo not drawn) [Luliconazole] showed an NF-kB reporter of 0.903. `Cc1cccc(CN2CCN(C(c3ccccc3)c3ccc(Cl)cc3)CC2)c1.Cl.Cl` (stereo not drawn) [Meclizine 2HCl] was tested, and the NF-kB reporter was 0.585. With `O=c1ccc2ccc(O)cc2o1` [Umbelliferone] the NF-kB reporter was 0.868. Work on `CN(C)C1C(O)=C(C(N)=O)C(=O)C2(O)C(O)=C3C(=O)c4c(O)cccc4C(C)(O)C3C(O)C12.O.O` (stereo not drawn) [Oxytetracycline Dihydrate] yielded an NF-kB reporter of 0.954. `CO/N=C(\C(=O)NC1C(=O)N2C(C(=O)[O-])=C(COC(C)=O)CSC12)c1csc(N)n1.[Na+]` (stereo not drawn) [Cefotaxime sodium] was tested, and the NF-kB reporter was 1.28. `Cc1cc(-n2c(=O)[nH]c(=O)n(C)c2=O)ccc1Oc1ccc(SC(F)(F)F)cc1` [Toltrazuril] was tested, and the NF-kB reporter was 1.15. `CCOc1ccc2c(c1)C(C)=CC(C)(C)N2` [Ethoxyquin] showed an NF-kB reporter of 0.996. `O=C1c2cccc(O)c2C(=O)c2c(O)cccc21` [Danthron] was tested, and the NF-kB reporter was 0.988. `O=C1OC2(c3ccc(O)cc3Oc3cc(O)ccc32)c2ccccc21` [Fluorescein] showed an NF-kB reporter of 0.817. Work on `CCCCc1nc(C)c(CC(=S)N(C)C)c(=O)n1Cc1ccc(-c2ccccc2-c2nnn[nH]2)cc1` [Fimasartan] yielded an NF-kB reporter of 0.922. Work on `O=C(NCCN1CCOCC1)c1ccc(Cl)cc1` yielded an NF-kB reporter of 0.735. With `NC(=O)CC(N)C(=O)O.O` (stereo not drawn) [L(+)-Asparagine monohydrate] the NF-kB reporter was 0.768. `CN(C)CC(c1ccc(O)cc1)C1(O)CCCCC1.O=C(O)CCC(=O)O` (stereo not drawn) [Desvenlafaxine Succinate] was tested, and the NF-kB reporter was 1.45. For `COc1cc2ccc(=O)oc2cc1O` [Scopoletin], the NF-kB reporter was 0.595. Work on `COC(=O)NC(C(=O)N1CCCC1c1ncc(-c2ccc3c(c2)OC(c2ccccc2)n2c-3cc3cc(-c4cnc(C5CCCN5C(=O)C(NC(=O)OC)C(C)C)[nH]4)ccc32)[nH]1)C(C)C` (stereo not drawn) [Elbasvir] yielded an NF-kB reporter of 0.995.
